Test [1] deals with T1, GST-Amphiphysin2 SH3 (UniProt O00499).
T1 sequence: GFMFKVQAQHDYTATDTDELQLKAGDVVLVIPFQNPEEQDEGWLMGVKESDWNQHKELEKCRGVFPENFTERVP
In words: pull-down; GST-amphiphysin-2/SH3 domain (8 mg) on glutathione Sepharose 4B tumbled 4 h, 4C with adult rat brain supernatant (buffer A, 1% Triton X-100); bound and eluted protein seen by Coomassie staining; only the target purified.

The target in test [2] is GST-IgFn (IgFn region of rat Kalirin12 fused to GST) (rat) (UniProt P97924). Nature of the test: pull-down; GST-IgFn beads incubated with adult rat cortical cytosol (2.0 mg protein); eluate blotted with pan-dynamin, dynamin1, dynamin2 and dynamin3 antibodies; only the target purified.
The target in test [3] is Kalirin (endogenous, precipitated with the Kalirin-spectrin antibody) (rat (endogenous in rat embryonic cortex)) (UniProt P97924). Nature of the test: co-IP; rat embryonic cortex cytosol immunoprecipitated with Kalirin-spectrin antibody (blots: pan-dynamin, dynamin1, dynamin2) or with dynamin antibody (blot: Kalirin12).
The target in test [4] is GST-IgFn (IgFn region of rat Kalirin12 fused to GST) (rat) (UniProt P97924). In words: pull-down; 2 μg GST or GST-IgFn on beads tumbled 2 h, 4C with lysates of transfected pEAK Rapid cells (20 mM NaTES, 10 mM mannitol, pH 7.4); blot with GFP antibody; in one panel 1 mM GTP or 1 mM GTPγS added to the lysate; only the target purified.

These are yes or no findings as the source states them, for the method shown. Binding seen in cells or lysates may run through a third protein. Some binding calls cover weakened binding; strength is not graded here. For some assays here: Tags and fused reporters may be left off the sequences shown.

B1: dynamin purified from adult rat brain (protein, UniProt P21575 1-864)
chain: MGNRGMEDLIPLVNRLQDAFSAIGQNADLDLPQIAVVGGQSAGKSSVLENFVGRDFLPRGSGIVTRRPLVLQLVNSTTEYAEFLHCKGKKFTDFEEVRLEIEAETDRVTGTNKGISPVPINLRVYSPHVLNLTLVDLPGMTKVPVGDQPPDIEFQIRDMLMQFVTKENCLILAVSPANSDLANSDALKIAKEVDPQGQRTIGVITKLDLMDEGTDARDVLENKLLPLRRGYIGVVNRSQKDIDGKKDITAALAAERKFFLSHPSYRHLADRMGTPYLQKVLNQQLTNHIRDTLPGLRNKLQSQLLSIEKEVDEYKNFRPDDPARKTKALLQMVQQFAVDFEKRIEGSGDQIDTYELSGGARINRIFHERFPFELVKMEFDEKELRREISYAIKNIHGIRTGLFTPDLAFEATVKKQVQKLKEPSIKCVDMVVSELTSTIRKCSEKLQQYPRLREEMERIVTTHIREREGRTKEQVMLLIDIELAYMNTNHEDFIGFANAQQRSNQMNKKKTSGNQDEILVIRKGWLTINNIGIMKGGSKEYWFVLTAENLSWYKDDEEKEKKYMLSVDNLKLRDVEKGFMSSKHIFALFNTEQRNVYKDYRQLELACETQEEVDSWKASFLRAGVYPERVGDKEKASETEENGSDSFMHSMDPQLERQVETIRNLVDSYMAIVNKTVRDLMPKTIMHLMINNTKEFIFSELLANLYSCGDQNTLMEESAEQAQRRDEMLRMYHALKEALSIIGDINTTTVSTPMPPPVDDSWLQVQSVPAGRRSPTSSPTPQRRAPAVPPARPGSRGPAPGPPPAGSALGGAPPVPSRPGASPDPFGPPPQVPSRPNRAPPGVPSRSGQASPSRPESPRPPFDL
Consider B1, for which the binding result in test [1] is given as “binds”.

B2: dynamin1 (rat, endogenous) (protein, UniProt P21575 1-864)
chain: B1 chain
As for B2, the binding result in test [2] and in test [3] was “binds” in each case.

B3: dynamin3 (rat, endogenous) (protein, UniProt Q08877 1-869)
chain: MGNREMEELIPLVNRLQDAFSALGQSCLLELPQIAVVGGQSAGKSSVLENFVGRDFLPRGSGIVTRRPLVLQLVTSKAEYAEFLHCKGKKFTDFDEVRHEIEAETDRVTGMNKGISSVPINLRVYSPHVLNLTLIDLPGITKVPVGDQPPDIEYQIRDMIMQFITRENCLILAVTPANTDLANSDALKLAKEVDPQGLRTIGVITKLDLMDEGTDARDVLENKLLPLRRGYVGVVNRSQKDIDGKKDIKAAMLAERKFFLSHPAYRHIADRMGTPHLQKVLNQQLTNHIRDTLPNFRNKLQGQLLSIEHEVEAFKNFKPEDPTRKTKALLQMVQQFAVDFEKRIEGSGDQVDTLELSGGAKINRIFHERFPFEIVKMEFNEKELRREISYAIKNIHGIRTGLFTPDMAFEAIVKKQIVKLKGPSLKSVDLVMQELINTVKKCTKRLANFPRLCEETERIVANHIREREGKTKDQVLLLIDIQVSYINTNHEDFIGFANAQQRSSQVHKKSTIGNQGTNLPPSRQIVIRKGWLTVSNIGIMKGGSKGYWFVLTAESLSWYKDDEEKEKKYMLPLDNLKVRDVEKGFMSSKHVFALFNTEQRNVYKDYRSLELACDSQEDVDSWKASLLRAGVYPDKSFTENDENGQAENFSMDPQLERQVETIRNLVDSYMSIINKCIRDLIPKTIMHLMINNVKDFINSELLAQLYSSEDQNTLMEESVEQAQRRDEMLRMYQALKEALAIIGDINTVTVSTPAPPPVDDSWLQHSRRSPPPSPTTQRRLTLSAPLPRPASSRGPAPAIPSPGPHSGAPPVPFRPGPLPPFPNSSDSYGAPPQVPSRPTRAPPSVPSRRPPPSPTRPTIIRPLESSLLD
In the case of B3, the binding result in test [2] is “no binding”.

B4: dynamin2 (rat, endogenous) (protein, UniProt P39052 1-870)
chain: MGNRGMEELIPLVNKLQDAFSSIGQSCHLDLPQIAVVGGQSAGKSSVLENFVGRDFLPRGSGIVTRRPLILQLIFSKTEYAEFLHCKSKKFTDFDEVRQEIEAETDRVTGTNKGISPVPINLRVYSPHVLNLTLIDLPGITKVPVGDQPPDIEYQIKDMILQFISRESSLILAVTPANMDLANSDALKLAKEVDPQGLRTIGVITKLDLMDEGTDARDVLENKLLPLRRGYIGVVNRSQKDIEGRKDIRAALAAERKFFLSHPAYRHMADRMGTPHLQKTLNQQLTNHIRESLPTLRSKLQSQLLSLEKEVEEYKNFRPDDPTRKTKALLQMVQQFGVDFEKRIEGSGDQVDTLELSGGARINRIFHERFPFELVKMEFDEKDLRREISYAIKNIHGVRTGLFTPDLAFEAIVKKQVVKLKEPCLKCVDLVIQELISTVRQCTSKLSSYPRLREETERIVTTYIREREGRTKDQILLLIDIEQSYINTNHEDFIGFANAQQRSTQLNKKRAIPNQGEILVIRRGWLTINNISLMKGGSKEYWFVLTAESLSWYKDEEEKEKKYMLPLDNLKIRDVEKGFMSNKHVFAIFNTEQRNVYKDLRQIELACDSQEDVDSWKASFLRAGVYPEKDQAENEDGAQENTFSMDPQLERQVETIRNLVDSYVAIINKSIRDLMPKTIMHLMINNTKAFIHHELLAYLYSSADQSSLMEESAEQAQRRDDMLRMYHALKEALNIIGDISTSTVSTPVPPPVDDTWLQNTSSHSPTPQRRPVSSVHPPGRPPAVRGPTPGPPLIPMPVGATSSFSAPPIPSRPGPQNVFANNDPFSAPPQIPSRPARIPPGIPPGVPSRRAPAAPSRPTIIRPAEPSLLD
Regarding B4, the binding entry in test [2] and in test [3] was “binds” in each case.

B5: dynamin2/ΔPRD-GFP (domain or fragment, UniProt P50570 1-746)
chain: MGNRGMEELIPLVNKLQDAFSSIGQSCHLDLPQIAVVGGQSAGKSSVLENFVGRDFLPRGSGIVTRRPLILQLIFSKTEHAEFLHCKSKKFTDFDEVRQEIEAETDRVTGTNKGISPVPINLRVYSPHVLNLTLIDLPGITKVPVGDQPPDIEYQIKDMILQFISRESSLILAVTPANMDLANSDALKLAKEVDPQGLRTIGVITKLDLMDEGTDARDVLENKLLPLRRGYIGVVNRSQKDIEGKKDIRAALAAERKFFLSHPAYRHMADRMGTPHLQKTLNQQLTNHIRESLPALRSKLQSQLLSLEKEVEEYKNFRPDDPTRKTKALLQMVQQFGVDFEKRIEGSGDQVDTLELSGGARINRIFHERFPFELVKMEFDEKDLRREISYAIKNIHGVRTGLFTPDLAFEAIVKKQVVKLKEPCLKCVDLVIQELINTVRQCTSKLSSYPRLREETERIVTTYIREREGRTKDQILLLIDIEQSYINTNHEDFIGFANAQQRSTQLNKKRAIPNQGEILVIRRGWLTINNISLMKGGSKEYWFVLTAESLSWYKDEEEKEKKYMLPLDNLKIRDVEKGFMSNKHVFAIFNTEQRNVYKDLRQIELACDSQEDVDSWKASFLRAGVYPEKDQAENEDGAQENTFSMDPQLERQVETIRNLVDSYVAIINKSIRDLMPKTIMHLMINNTKAFIHHELLAYLYSSADQSSLMEESADQAQRRDDMLRMYHALKEALNIIGDISTSTVST
With B5, the binding entry in test [4] is given as “binds”.

B6: dynamin2/GTPase-GFP fusion protein (domain or fragment, UniProt P50570 1-320)
chain: MGNRGMEELIPLVNKLQDAFSSIGQSCHLDLPQIAVVGGQSAGKSSVLENFVGRDFLPRGSGIVTRRPLILQLIFSKTEHAEFLHCKSKKFTDFDEVRQEIEAETDRVTGTNKGISPVPINLRVYSPHVLNLTLIDLPGITKVPVGDQPPDIEYQIKDMILQFISRESSLILAVTPANMDLANSDALKLAKEVDPQGLRTIGVITKLDLMDEGTDARDVLENKLLPLRRGYIGVVNRSQKDIEGKKDIRAALAAERKFFLSHPAYRHMADRMGTPHLQKTLNQQLTNHIRESLPALRSKLQSQLLSLEKEVEEYKNFRPD
Turning to B6, the binding result in test [4] was “binds”.
